# Source: the supplement of paper PMC7826260
# The list shows a part of the results. Cleavage of a single-stranded DNA pool by Rep nickase domains was read by sequencing (1 h at 37 °C, 3 µM enzyme); the outer parts of the 90-letter strands are left off. The score is log2 (uncut reads / reads without enzyme); uncut sequences lie near 0, cut ones below; no hit call is given. Reads are scaled to the total; uncut strands gain when others are lost, and binding without cutting may add a little.
# Columns and labels:
# Assay in all cases: uncleaved DNA left, log2 of reads against the no-enzyme library (log2 ratio); higher = less cleavage (more negative = more Rep cleavage of the k-mer); sequences stand for … in CTCGTCCG…ACCGGAGA
# [1] = system: T1, Rep nickase domain of Muscovy duck circovirus
# T1 sequence (residues 1-111, tag not shown): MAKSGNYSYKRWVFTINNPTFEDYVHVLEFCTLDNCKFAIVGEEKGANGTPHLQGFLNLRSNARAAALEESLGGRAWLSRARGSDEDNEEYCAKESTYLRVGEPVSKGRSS
# Description: (§1)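 A pool of 90-nt single-stranded DNAs with seven random bases just before the constant AC of the nick site (name = the seven bases) was cut by 3 µM recombinant His6-SUMO-tagged Rep nickase domain (300 nM DNA, 50 mM HEPES pH 8.0, 50 mM NaCl, 1 mM MnCl2, 1 h, 37 °C, three replicates). Uncut DNA was amplified and sequenced.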
# [2] = system: T2, Rep nickase domain of banana bunchy top virus
# T2 sequence (residues 1-94, tag not shown): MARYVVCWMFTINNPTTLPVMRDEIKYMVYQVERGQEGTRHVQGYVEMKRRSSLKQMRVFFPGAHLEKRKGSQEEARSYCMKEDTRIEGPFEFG
# Description: as §1
# [3] = system: T3, Rep nickase domain of cabbage leaf curl virus
# T3 sequence (residues 1-116, tag not shown): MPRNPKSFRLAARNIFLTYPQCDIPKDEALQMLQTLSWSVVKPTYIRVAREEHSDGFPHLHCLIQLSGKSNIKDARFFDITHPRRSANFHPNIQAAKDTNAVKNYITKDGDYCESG
# Description: as §1
# [4] = system: T4, Rep nickase domain of chickpea chlorotic dwarf virus
# T4 sequence (residues 1-124, tag not shown): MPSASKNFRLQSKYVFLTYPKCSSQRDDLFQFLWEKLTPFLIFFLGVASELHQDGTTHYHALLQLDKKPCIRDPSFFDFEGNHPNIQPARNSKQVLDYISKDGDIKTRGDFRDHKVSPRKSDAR
# Description: as §1
# [5] = system: T5, Rep nickase domain of faba bean necrotic yellows virus
# T5 sequence (residues 1-98, tag not shown): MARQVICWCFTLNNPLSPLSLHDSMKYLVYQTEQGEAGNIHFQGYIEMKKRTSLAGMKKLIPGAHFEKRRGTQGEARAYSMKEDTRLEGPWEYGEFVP
# Description: as §1
# [6] = system: T6, Rep nickase domain of maize striate mosaic virus
# T6 sequence (residues 1-117, tag not shown): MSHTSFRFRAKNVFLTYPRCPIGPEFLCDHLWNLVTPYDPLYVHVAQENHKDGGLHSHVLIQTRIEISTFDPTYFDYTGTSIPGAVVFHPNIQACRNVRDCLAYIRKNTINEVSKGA
# Description: as §1
# [7] = system: T7, Rep nickase domain of porcine circovirus 2
# T7 sequence (residues 2-116, tag not shown): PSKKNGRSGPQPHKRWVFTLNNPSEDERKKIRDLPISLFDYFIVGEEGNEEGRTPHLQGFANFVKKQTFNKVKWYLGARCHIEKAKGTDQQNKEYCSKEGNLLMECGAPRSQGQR
# Description: as §1
# [8] = system: T8, Rep nickase domain of tomato yellow leaf curl virus
# T8 sequence (residues 1-136, tag not shown): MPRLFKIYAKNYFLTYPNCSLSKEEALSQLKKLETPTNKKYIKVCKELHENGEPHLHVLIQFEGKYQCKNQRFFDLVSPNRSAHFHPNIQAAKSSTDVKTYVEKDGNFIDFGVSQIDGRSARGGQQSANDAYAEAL
# Description: as §1
# [9] = system: T9, Rep nickase domain of wheat dwarf virus
# T9 sequence (residues 1-137, tag not shown): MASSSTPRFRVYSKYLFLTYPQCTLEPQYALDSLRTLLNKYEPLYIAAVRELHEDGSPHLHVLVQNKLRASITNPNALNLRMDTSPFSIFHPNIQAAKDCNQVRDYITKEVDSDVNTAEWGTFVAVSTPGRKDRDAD
# Description: as §1
Sequence,uncleaved DNA left (log2) [1],uncleaved DNA left (log2) [2],uncleaved DNA left (log2) [3],uncleaved DNA left (log2) [4],uncleaved DNA left (log2) [5],uncleaved DNA left (log2) [6],uncleaved DNA left (log2) [7],uncleaved DNA left (log2) [8],uncleaved DNA left (log2) [9]
TTCAGAG,0.156,0.144,0.089,-0.0898,-0.0419,-0.494,0.173,0.00863,0.154
ACGGGTT,0.0871,0.102,0.00271,-0.672,-0.0417,0.341,0.0895,-0.0587,-0.169
CGTGTGG,-0.0408,-0.0803,0.0838,0.448,-0.0954,0.0942,0.0294,-0.199,-0.163
ACTTTTT,-2.3,-0.539,-0.362,-2.62,0.0865,-0.947,-3.37,-0.0807,-0.00285
ACAGCCG,0.0706,-0.108,-0.549,0.684,-4.61e-05,-0.0496,0.144,0.0156,-0.0391
AGCAATA,0.0799,0.0452,-0.0398,-0.399,0.0483,0.381,-0.582,-0.0926,0.135
ACTTATG,-0.064,0.0298,-0.676,-0.588,-0.00807,-1.07,0.0498,-0.0802,-0.0608
CGCGTTG,0.307,0.256,0.172,0.409,0.197,0.682,0.198,0.221,0.182
AAAACAA,0.0424,0.0988,-0.0291,-0.783,0.119,-0.59,0.124,0.0523,0.144
TATGTAA,0.0442,-0.0535,-0.0372,-0.644,0.124,-0.408,-0.113,0.000269,0.119
TGTCGGT,0.0243,0.0099,0.564,1.35,0.0245,1.44,0.0234,0.0426,0.0359
GTTAGGA,0.296,0.157,0.38,0.949,0.197,1.02,0.355,0.173,0.269
ATCTCTC,0.0575,-0.0719,-0.116,-0.145,-0.0671,-0.198,-0.0248,0.0155,-0.015
GCCCTCA,-0.136,0.0514,0.223,0.0731,0.0426,0.515,0.0335,0.0558,-0.0173
TTACAGA,0.083,-0.029,-0.232,-1.8,-0.00981,-0.758,-0.0125,-0.0294,-0.0769
ATCCTTG,-0.209,-0.0983,-0.578,-1.21,-0.11,-0.984,-0.0338,-0.112,-0.223

Sequence,uncleaved DNA left (log2) [1],uncleaved DNA left (log2) [2],uncleaved DNA left (log2) [3],uncleaved DNA left (log2) [4],uncleaved DNA left (log2) [5],uncleaved DNA left (log2) [6],uncleaved DNA left (log2) [7],uncleaved DNA left (log2) [8],uncleaved DNA left (log2) [9]
GGATTTA,0.0313,0.0236,0.558,0.98,0.0233,1.86,0.177,0.0543,0.0948
GACAGTT,0.00216,-0.104,0.4,-0.215,-0.0353,1.32,-1.06,-0.0947,0.0657
TATGTTT,-0.246,-1.36,-2.5,-2.73,0.057,-0.0627,-1.47,0.0382,-0.36
AGCCCAC,0.117,0.0348,0.183,0.825,-0.0991,0.983,-0.00256,0.0763,0.204
AGGTGCG,-0.0226,-0.0741,-0.132,1.11,0.0413,0.868,0.178,0.0146,-0.147
GCCATCC,0.000336,0.0981,0.0801,0.378,-0.027,-0.0566,0.0521,0.0782,-0.165
CACCGTA,0.0429,-0.0747,-0.215,-1.75,0.0327,-0.834,-0.384,-0.0974,-0.14
GCGACTG,-0.0345,0.0486,-0.0356,0.54,-0.0304,1.79,0.0755,-0.14,0.0329
GCTGTCT,0.0922,-0.045,0.0603,-0.471,-0.0481,0.411,-0.108,-0.128,-0.0611
CGTCCGA,-0.0128,0.0122,0.0289,0.411,-0.0267,0.37,-0.0286,0.0522,-0.014
ATCGGCG,0.113,0.179,-0.508,0.891,0.22,-0.0793,0.297,0.103,0.0111
CTTCAGC,0.0182,-0.07,-0.0049,-0.0717,0.074,-0.706,0.102,0.0541,0.00369
ACGCAAC,-0.086,-0.152,-0.158,-0.942,-0.0458,-0.613,0.111,-0.00549,-0.0923
ATAGGAC,0.00523,0.0067,0.236,1.21,-0.0243,1.18,0.164,-0.101,0.1
CAGTGCT,-0.373,-2.12,-0.994,-1.92,-1.42,-1.18,-3.98,-0.0742,-0.111
TAAAAAC,0.00215,-0.0997,-0.614,-2.34,0.0224,-0.83,0.165,-0.0768,-0.219
